Over roughly 33,000 sequences, “E-score (-0.5 to 0.5)” has its median near -0.017; the highest 2% begin near 0.3. Some of the results follow.
molecular target: T1, Sut1 (UniProt P53032); assay: PBM E-score (8-mer binding enrichment) (E-score (-0.5 to 0.5)); higher = stronger / more preferred TF binding; most listed sequences are background and not binding sites; conditions: protein concentration: 200 nM; construct: GST-full length
T1 sequence: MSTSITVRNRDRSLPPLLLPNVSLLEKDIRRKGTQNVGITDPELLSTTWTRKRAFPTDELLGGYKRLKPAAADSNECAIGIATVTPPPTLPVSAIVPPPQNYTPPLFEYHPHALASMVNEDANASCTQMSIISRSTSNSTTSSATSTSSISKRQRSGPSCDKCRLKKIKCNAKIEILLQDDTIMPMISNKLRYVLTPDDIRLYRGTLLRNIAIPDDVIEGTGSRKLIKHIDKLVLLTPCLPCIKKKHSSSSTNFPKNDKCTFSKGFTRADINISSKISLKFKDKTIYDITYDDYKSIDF
Method in brief: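 E-scores (a modified Wilcoxon-Mann-Whitney statistic) were assigned by the Universal PBM Analysis Suite to every ungapped eight-base word pooled with its reverse complement. The input came from universal all-10-mer Agilent arrays made double-stranded by primer extension and probed with GST-tagged yeast transcription factors at about 100-200 nM. Fluorescent anti-GST detected bound protein, and masliner normalised the scans.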

In order of falling “PBM E-score” value:
1. GCATCGGA  0.348
2. TCCGTCCA  0.316
3. ATAATTAA  0.314
4. ATAAAACG  0.295
5. ATATATTC  0.282
6. CAAAAATA  0.281
7. TAACCAAA  0.248
8. ATACATTA  0.234
9. AGCATTAT  0.231
10. AAGAACCG  0.222
11. GTTTAGTA  0.208
12. AGGTTCGG  0.203
13. GATCGGTA  0.188
14. TGAAGAAA  0.185
15. GCCAAAAA  0.175
16. GCATTTCA  0.169
17. TAGTTAGA  0.169
18. ACATGTTG  0.167
19. GAAGACAA  0.161
20. TCCTATAA  0.161
21. AATCCGAA  0.159
22. AACAGCAC  0.156
23. AATTAGGC  0.155
24. ACAAACAA  0.154
25. CTAAATAC  0.144
26. AACTACAT  0.141
27. CGCCGATC  0.137
28. CTATCCGA  0.134
29. TGACTAAA  0.128
30. CGAACGAA  0.126
31. CGTAATAG  0.125
32. AATCAACG  0.123
33. GCGGTTAC  0.113
34. ACTAGGTA  0.111
35. AAATAAGT  0.109
36. CTTGATGA  0.104
37. ACTTCTAT  0.094
38. ATAAACAC  0.0929
39. GAGCTTCA  0.0926
40. ATAGTCTA  0.0924
41. CAATAATG  0.0884
42. CGAGCTCC  0.0848
43. AGTTTCTG  0.0794
44. TATGGACA  0.0733
45. TCTTTCAA  0.0726
46. ATACATAC  0.0668
47. GATATGGA  0.0661
48. TAACAGCA  0.0633
49. AGTGGTAA  0.0603
50. ATGTTAGC  0.0602
51. GGTTGTAC  0.0573
52. GTAGTGGA  0.0571
53. GTTCCTAA  0.0563
54. ACCACTCG  0.0555
55. CGGATTCA  0.0536
56. GCATGAAA  0.047
57. AGAACGGC  0.0452
58. CGTCCATC  0.0407
59. CCTAATTA  0.039
60. CCGACATA  0.0387
61. CGAAGATC  0.0352
62. ATGAACGC  0.034
63. GTTTTGCA  0.0328
64. CAAAGGTA  0.0312
65. CCAAATCC  0.0309
66. AATCTCTC  0.0289
67. AATCCGAG  0.0276
68. GCGTAAAC  0.0266
69. CAAACGGG  0.0265
70. ATTTGCCC  0.0253
71. CGTACCGA  0.0233
72. GCCTAGAA  0.0225
73. CAAGTTTA  0.0197
74. CCATGAAC  0.0148
75. ACTCAATC  0.0145
76. ACCCGAAA  0.0144
77. TAGGTCAA  0.012
78. ACGAATTG  0.0104
79. CATCTCTA  0.0078
80. AGCTCTCA  0.00744
81. ACATTTCC  -0.00897
82. GTCCTTAA  -0.00985
83. CTCATTTC  -0.0108
84. ATACCGAG  -0.0151
85. GATTCAGC  -0.0174
86. CCAACTCA  -0.0222
87. GGGTATTA  -0.0222
88. ACCTGTCG  -0.0238
89. CTTTGACC  -0.0243
90. ACATTGAC  -0.025
91. ATAGCAGC  -0.0277
92. TGTTCCAA  -0.0288
93. CCTTTCTC  -0.0288
94. AGCCGAAC  -0.0293
95. GATCGAAC  -0.0314
96. ATATGTGC  -0.0399
97. ATGCACGA  -0.0413
98. AAAAGGCT  -0.0471
99. ACGTACCA  -0.0482
100. GGCCGTAC  -0.0509
101. ACAAGTGT  -0.0511
102. GGCCTTGA  -0.0528
103. ATCCGTGG  -0.0567
104. ACTACTGC  -0.059
105. CCGCAGCG  -0.0642
106. CAGGGAAA  -0.0645
107. ACATTCCT  -0.0661
108. CACTTCGA  -0.0675
109. CGTGAACA  -0.0744
110. CTCGCTGA  -0.0752
111. GACCGCAA  -0.0776
112. ACTATCGA  -0.0789
113. ATAGCGTC  -0.0799
114. ACTGGTAC  -0.0817
115. CTAAGCAA  -0.0825
116. AATCCGGC  -0.0834
117. ACGAGGTC  -0.0839
118. GAGCTCCA  -0.0878
119. CTGCATCC  -0.0902
120. GCAACCTA  -0.0902
121. TGGGCCCA  -0.0911
122. CACAAACC  -0.0926
123. AGGAATGC  -0.0946
124. AGGTCCCC  -0.0987
125. CGTCGAAG  -0.0997
126. ACTTTGGC  -0.104
127. CGCCCTGA  -0.105
128. CAGTCATC  -0.109
129. CCTCACAC  -0.112
130. CCACATCC  -0.112
131. AGTTGCAC  -0.117
132. CGTCATGA  -0.117
133. AAGACATT  -0.118
134. CAGGTGCG  -0.123
135. AGTCTTTG  -0.123
136. ACCCTAGC  -0.127
137. CTCAGGAC  -0.127
138. CCCCCAAG  -0.13
139. GTCGAAAC  -0.133
140. ACGATCTG  -0.133
141. ACGAACAG  -0.146
142. CCCAGTGC  -0.148
143. ACGTTCGC  -0.15
144. ACTGGCTC  -0.158
145. TGGGACAA  -0.165
146. AGGCGACA  -0.182
147. GCGGTTCA  -0.182
148. CTACAGGC  -0.186
149. AGCATCAC  -0.193
150. AAGCTGGC  -0.195
151. GGCACAAC  -0.196
152. AAGCTCTG  -0.197
153. CCACCTGC  -0.213
154. CTGGTATC  -0.215
155. CAGACTGG  -0.218
156. GCTGAGGA  -0.218
157. AGTCGTGC  -0.22
158. CATAGAGG  -0.22
159. ACATGGAG  -0.22
160. ACGGTTAG  -0.225
161. GCGAGGGA  -0.226
162. GCATGAGA  -0.227
163. GCCACGCC  -0.229
164. GAACCGTA  -0.234
165. GCACCGCC  -0.248
166. AGGGGTGA  -0.258
167. CCCCCATC  -0.261
168. CCAGCACG  -0.277
169. GCGGGTAA  -0.291
170. CCCTCCTC  -0.301
171. AGCAGGGC  -0.32
172. CCTCCAGG  -0.325

Source: the supplement of paper PMC3334620
